Data reported in PMC4336329 (PLoS ONE, 2015).
About 14,000 (4.5%) of roughly 310,000 compounds showed an effect of 50% or more. Effects have a minus sign here. The list shows a part of the results.

biological target: human ether-à-go-go-related gene (hERG) potassium channel (human, UniProt Q12809); assay: primary screen, population patch clamp on CHO cells stably expressing hERG
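Note: peak tail current of the secondary pulse compared with the same well before compound.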

Sequence of human ether-à-go-go-related gene (hERG) potassium channel (Q12809 whole entry, looked up): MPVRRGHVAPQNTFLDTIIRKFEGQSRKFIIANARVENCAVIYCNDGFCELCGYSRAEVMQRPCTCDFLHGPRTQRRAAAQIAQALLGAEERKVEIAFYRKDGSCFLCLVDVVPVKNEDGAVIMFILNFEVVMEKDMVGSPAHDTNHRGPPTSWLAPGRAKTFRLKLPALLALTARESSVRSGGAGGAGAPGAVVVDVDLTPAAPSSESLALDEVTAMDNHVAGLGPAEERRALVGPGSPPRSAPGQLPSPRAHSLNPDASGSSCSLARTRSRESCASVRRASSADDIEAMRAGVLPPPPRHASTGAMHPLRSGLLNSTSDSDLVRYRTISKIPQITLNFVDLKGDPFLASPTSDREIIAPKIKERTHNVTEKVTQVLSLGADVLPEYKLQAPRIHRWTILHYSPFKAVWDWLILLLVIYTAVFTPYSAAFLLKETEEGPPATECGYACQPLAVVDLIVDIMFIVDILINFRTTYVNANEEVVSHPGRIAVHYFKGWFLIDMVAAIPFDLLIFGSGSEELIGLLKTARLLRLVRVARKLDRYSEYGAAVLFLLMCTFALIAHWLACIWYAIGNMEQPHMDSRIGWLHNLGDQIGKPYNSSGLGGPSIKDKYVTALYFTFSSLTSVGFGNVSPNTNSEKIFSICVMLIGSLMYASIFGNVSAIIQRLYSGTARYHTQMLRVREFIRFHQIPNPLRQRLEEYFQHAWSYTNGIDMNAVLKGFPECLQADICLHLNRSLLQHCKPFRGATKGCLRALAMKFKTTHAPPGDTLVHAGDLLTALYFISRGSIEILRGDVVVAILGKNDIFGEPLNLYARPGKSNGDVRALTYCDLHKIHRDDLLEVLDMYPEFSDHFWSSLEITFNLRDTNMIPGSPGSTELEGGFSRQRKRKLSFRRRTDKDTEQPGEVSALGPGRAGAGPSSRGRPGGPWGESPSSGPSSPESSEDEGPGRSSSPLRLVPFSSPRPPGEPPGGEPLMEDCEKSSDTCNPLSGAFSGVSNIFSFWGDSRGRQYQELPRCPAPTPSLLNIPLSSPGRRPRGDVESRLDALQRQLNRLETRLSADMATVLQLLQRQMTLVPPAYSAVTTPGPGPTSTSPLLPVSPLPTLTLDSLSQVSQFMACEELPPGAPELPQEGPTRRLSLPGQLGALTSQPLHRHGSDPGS

Compound | hERG current change (%, negative = inhibition) at 10uM [%]
COc1ccccc1C(O)P(=O)(OC1CCCCC1)OC1CCCCC1 (centres unmarked) | 8.64
COC(=O)c1ccc(C(=O)NC2CC(C)(C)Cc3c2cnn3-c2ccc(F)cc2)nc1 (centres unmarked) | -23.4
Cc1cc(N2CCCC2)ccc1NC(=O)COc1cccc(C(F)(F)F)c1 | 24.1
Cc1nc2nc(-c3ccc(F)cc3)cn2nc1C | 7.58
CCOC(=O)Cc1nnc(NC(=O)C23CC4CC(CC(C4)C2)C3)s1 | 8.5
CCOc1cccc(C(=O)Nc2ccccc2C(=O)N2CCN(C)CC2)c1 | -4.1
CCO[C@H]1OC(C(N)=O)=C[C@@H](c2ccc(Br)cc2)[C@@H]1CCCO | -25.1
O=C(C[n+]1cccc(Br)c1)c1cccs1.[Br-] | 9.29
CC(C)N(Cc1nc(-c2ccc(Cl)cc2)no1)C(=O)CCC1CCCC1 | -7.81
Cc1cc(C(=O)C(=O)O)c(C)n1-c1ccc(Cl)cc1 | -43.4
COc1ccc(C(=O)NNC(=O)CCc2ccccc2OC)cc1 | 7.71
Cc1nn(Cc2ccccc2)c(C)c1/C=N/NC(=O)c1ccncc1 | -46.4
COc1ccccc1C1(CC(=O)O)CCOC(C)(C)C1 (centres unmarked) | -3.35
COc1cccc(NC(=O)CNC(C)CCC(C)C)c1.Cl (centres unmarked) | -6.31
COc1ccc(C2Nc3ccccc3C(=O)N2c2ccccc2)cc1CSc1ccccn1 (centres unmarked) | 6.48
Cc1cc(-c2cc(C(=O)Nc3ccccc3)on2)nc(NC2CCCC2)n1 | -3.16
Cn1c(=O)c2c(nc(NCCCN3CCOCC3)n2Cc2ccc(Cl)cc2)n(C)c1=O | -20.8
Cc1ccc(NC2CC(C)NC(=S)N2)cc1 (centres unmarked) | 1.24
CCOc1ccc(C(=O)Nc2nnc(S(=O)(=O)Nc3ccccc3C)s2)cc1 | 18.4

Compound | hERG current change (%, negative = inhibition) at 10uM [%]
CCn1c(COc2cccc(C)c2)nnc1SCC(=O)CC(=O)Nc1ccccc1OC | -15.6
Cc1ccsc1/C=N/NC(=O)CN1CCN(S(=O)(=O)c2ccc(Br)cc2)CC1 | -41.7
O=C(CNC(=O)c1ccc(Br)o1)OCC(=O)c1cccc([N+](=O)[O-])c1 | -22.3
CC(C)OCCCNC(=O)CCc1nc(-c2ccccc2)no1 | 15.8
COc1cc(C2=NOC(C(=O)Nc3cc(C)on3)C2)cc(OC)c1OC (centres unmarked) | 1.34
CC(C)OCCCNC(=O)C1CC(=O)N(CCc2ccccc2)C1 (centres unmarked) | 20
O=C(c1ccccc1)N1N=C(C(F)(F)F)CC1(O)c1ccccc1 (centres unmarked) | 10.6
CS(=O)(=O)c1ccc(CNC(=O)C2(C(F)(F)F)C/C(=C/CCO)CCCO2)cc1 (centres unmarked) | -0.92
CCOc1ccc(NCC(=O)N/N=C/C=C/c2ccccc2)cc1 | -7.47
CC(=O)c1cccc(CN2CCC(n3nccc3NC(=O)CCCc3ccccc3)CC2)c1 | -37.8
CC1=CC(C)(C)N(C(=O)CSc2ncn[nH]2)c2ccc(C)cc21 | -4.26
Cn1c(SCCN2CCCC2)nnc1C1CCN(S(=O)(=O)c2cccc(F)c2)CC1 | -9.81
COc1ccc(-c2onc(C)c2C)cc1S(=O)(=O)NCCc1ccco1 | -41.8
COc1ccc(-c2cn[nH]c2-c2ccc(OCc3ccccc3)cc2O)cc1 | -0.98
CC(Oc1ccccc1F)C(=O)NNC(=O)c1cccc(S(=O)(=O)N2CCN(C)CC2)c1 (centres unmarked) | 10.3
O=C(COc1ccc(Br)cc1)Nc1ccccc1N1CCCC1 | -2.87
COc1cccc(CN(C)C(=O)c2ccc3nccnc3c2)c1 | -6.89
Cc1ccc(Oc2cc(C#N)c(C#N)cc2-n2nnc3ccccc32)cc1C | 4.03
Cc1cc(NC(=O)CCl)on1 | 44.3

Compound | hERG current change (%, negative = inhibition) at 10uM [%]
O=C(c1ccc(-c2ccccc2)cc1)N1CCN(c2ccccc2F)CC1 | 7.96
CCCn1c(SCC(=O)c2cc(C)n(C3CC3)c2C)n[nH]c1=O | -6.45
O=C(CSCSCC(=O)Nc1ccc2c(c1)OCO2)Nc1ccc2c(c1)OCO2 | -2.21
O=S(=O)(NCCOc1ccccc1Cl)c1ccc2oc3ccccc3c2c1 | 3.52
COc1ccc(NC(=O)COC(=O)Cc2c[nH]c3ccccc23)cc1OC | 11.2
O=C(CSc1nnc2c(n1)[nH]c1ccc(F)cc12)OCc1ccccc1 | 20.7
CCCc1cc(C(=O)N2CCN(S(=O)(=O)c3ccc(OC)c(OC)c3)CC2)cs1 | -26.8
O=C(O)C(=O)O.c1ccc2cc(OCCCn3ccnc3)ccc2c1 | -6.69
Cc1cc(C)n(-c2ccc(C(=O)Nc3ccc(S(=O)(=O)N(C)C)cc3)cc2)n1 | -40.8
Nn1c(SCc2cccc(F)c2)nnc1-c1ccncc1 | -4.03
COC(=O)c1ccc(CSc2nnc3ccccn23)o1 | 6.81
Cc1cc(C)c2nc(-n3nc(C)cc3N)cc(C)c2c1 | 20
CC#CCN1c2ccccc2[C@]23C[C@@H](C(=O)OC)N(C(=O)c4cc(C)oc4C)C2=NC(C(=O)OC)=C(C(=O)OC)[C@H]13 | -6.24
COc1ccc(S(=O)(=O)NCC2CCCN(C(=O)CCSC)C2)cc1 (centres unmarked) | 18
CCn1c2ccccc2c2cc(N)ccc21 | 4.52
O/N=C(\c1ccccc1)C(O)c1ccccc1 (centres unmarked) | -18.4
COc1ccc(Cl)cc1N1C(=O)C2CCCN2C1c1ccc(F)cc1 (centres unmarked) | -2.02
CCOC(=O)c1sc(=NC(=O)c2ccccc2)n(C)c1C | 13.7
